Out of some 150,000 compounds screened, about 540 (0.36%) showed an effect of 50% or more. The list shows a part of the results.
System: Plasmodium falciparum
Test: Primary screen in NF54 nanoGlo assay, in single point, at 2uM, 72h; a lower Z score goes with more inhibition
Assay type: functional, Erythrocyte
Settings: timepoint 72 hour

Row | SMILES | % Inhibition [%] | Z score
1 | O=C(Nc1ccc(-c2cc3ccccc3[nH]2)cc1)C1CCN(C2CCC2)CC1 | -14 | 1.62
2 | Cc1ccc(C)n1CC(=O)N1CCC[C@H]1c1nc2ccccc2n1C | -10 | 1.29
3 | Cc1c(-c2cc(C(=O)NCc3cnc4c(c3)CCC4)n[nH]2)cnn1C | -10 | 1.23
4 | CCCN(CC(=O)N(CCc1ccccc1)Cc1ccco1)S(C)(=O)=O | -12 | 1.42
5 | CC1(C)CC(=O)NCCN1CCOc1cccc(S(C)(=O)=O)c1 | -5 | 0.66
6 | Cn1c(C(=O)N2CCOC3CCCC32)cc(Cl)c1Cl (stereo not drawn) | 4 | -0.81
7 | Cc1ccc([C@@H]2Cn3cnc(C(=O)N4CCC(C(=O)NCC(F)F)CC4)c3CO2)cc1 | -12 | 1.37
8 | CCc1nc(O)c(C(=O)N(C)CCn2cccn2)cc1C | -9 | 1.03
9 | CCc1nc(C)nc(N2CCCN(C(=O)c3cc(C(F)(F)F)cc(C(F)(F)F)c3)CC2)c1Cc1ccccc1 | 3 | -0.46
10 | CCOC(=O)c1ccc(NC(=O)N(CC)[C@H]2CCOC(C)(C)C2)cc1 | 11 | -1.51
11 | CC(=O)c1cccc(NC(=O)CN2CCN(c3ccc(F)c(F)c3)C2=O)c1 | 24 | -2.76
12 | CC(=O)N[C@@H](C)c1ccc(S(=O)(=O)OCC(F)(F)C(F)F)s1 | -9 | 0.95
13 | O[C@@H](CN(Cc1ccncc1Cl)C1CC1)c1ccccc1 | 0 | -0.03
14 | CCC[C@@]1(C)C(=O)NCCN1C(=O)CC#N | -2 | 0.41
15 | O=C(Cn1c(=O)c2cc(C3CC3)nn2c2ncccc21)NCc1ccc(Cl)cc1 | 10 | -1.77
16 | O=S(=O)(Cc1cccc(F)c1)N1CCC[C@H](c2nnc(C(F)(F)F)o2)C1 | 10 | -1.16
17 | Cc1ccc(NC(=O)Cn2c(C)nc3c(-c4ccncc4)nsc3c2=O)c(Cl)c1 | -10 | 1.61
18 | CN(C)CCNc1nc2c(c(=O)[nH]1)Cc1ccccc1OC2 | -4 | 0.72
19 | CCn1nccc1C(=O)NC(C)(C)c1nc2c(c(C(N)=O)n1)OCO2 | -6 | 0.75
20 | N#Cc1cc2ccccc2nc1OCC(F)F | -10 | 1.95
21 | O=C(COC(=O)C1CCCC1)Nc1cc(C2CC2)nn1-c1ccccc1 | -8 | 1.46

Row | SMILES | % Inhibition [%] | Z score
22 | COc1ccc(-c2cnn3c(C)cc(C)nc23)cc1S(=O)(=O)NC1CCCC1 | -11 | 1.07
23 | Cc1ccc(CCCNC(=O)[C@H](C)NS(=O)(=O)c2c(C)noc2C)c(C)c1 | 0 | 0.03
24 | COc1cc(NC(=O)C2CCN(c3c(C(=O)N4CCC(C)CC4)cnc4snc(C)c34)CC2)cc(OC)c1 | 20 | -3.5
25 | c1csc(-c2n[nH]cc2CNCc2nnc3n2CCOCC3)c1 | 2 | -0.31
26 | CCOc1ccc(CN2C(=O)CCC2(C)C(=O)NC2CCCC(C)C2C)cc1OC (stereo not drawn) | -19 | 3.02
27 | O=C(CCN1C(=O)C[C@@H](c2cccs2)NC1=O)N1CCCCCC1 | -18 | 2.74
28 | Cc1cc(N2CCn3c(nc4cc(Cl)ccc43)C2)ccc1NC(=O)CCc1ccccc1 | -7 | 1.01
29 | Cc1noc(C)c1C(=O)N1CCCCO1 | -2 | 0.21
30 | CCCC(=O)Nc1c(C)cc(C)cc1C | -7 | 1.09
31 | COc1ccccc1N1C(=O)CN(S(=O)(=O)c2ccccc2)C[C@@]1(C)C(=O)NC1CCCC1 | -17 | 2.09
32 | COc1ccc(Cl)cc1S(=O)(=O)N1CCC2(CC1)c1nccn1CCN2C | -12 | 1.6
33 | CCCCN(CCO)C(=O)Nc1ccc(Br)cc1C | 6 | -0.66
34 | CC(C)(C)CN1C[C@]23C=C[C@H](O2)C(C(=O)N2CCNC(=O)CC2)C3C1=O (stereo partly drawn) | 5 | -0.83
35 | Cc1nc[nH]c1-c1c(-c2ccccc2)ncn1Cc1cc(CC(C)C)on1 | 3 | -0.34
36 | Cn1cc(CCNC(=O)C2(O)CCC2)c2ccc(Cl)cc21 | -9 | 1.43
37 | CC1CC(C)CN(C(=O)CNCCn2cccn2)C1 (stereo not drawn) | -13 | 1.85
38 | O=C(Nc1ncc(Cc2ccccc2)s1)[C@@H]1CC=CCC1 | -4 | 0.59
39 | C[C@@H](CC(N)=O)N(C)S(=O)(=O)c1cc(Cl)c(Cl)s1 | -10 | 1.44
40 | Cc1ccccc1C1=NO[C@@H](CN(Cc2ccc(F)cc2)C(=O)CC(C)C)C1 | -8 | 0.83
41 | Cc1nc2cc(NC(=O)c3nonc3C)ccc2o1 | 0 | 0.03
42 | CCc1nn(C)c(Cl)c1CN1CCC2(CC1)CN(CCC(C)C)C(=O)O2 | -12 | 2.43

Row | SMILES | % Inhibition [%] | Z score
43 | Cn1cccc1CN1CCC([C@](C)(O)C(F)(F)F)CC1 | -13 | 1.61
44 | CCCN(CC(=O)O)C(=O)[C@H]1CCN(C)C(=O)C1 | -10 | 1.57
45 | CC(C)(CO)NC(=O)c1ccnc(OCC(F)F)c1 | -6 | 1.11
46 | Cc1ccc(S(=O)(=O)N[C@H]2CCN(Cc3ccccc3)C2)s1 | -4 | 0.49
47 | Cc1ccsc1-c1nnc(CC(=O)NC2CCCCCC2)o1 | -13 | 1.33
48 | CC(C)(C)OC(=O)c1cccc(C(=O)N2CCC3CC3C2)c1 (stereo not drawn) | -7 | 1.22
49 | O=S(=O)(Nc1ncn(-c2ccccc2)n1)c1cc(F)ccc1F | 31 | -3.47
50 | Cc1cc(C)n(CCCNCc2ccc(-c3cc[nH]n3)o2)n1 | -3 | 0.42
51 | C=CCOC[C@@H](O)CN(Cc1ccc(F)cc1F)CC(C)C | -3 | 0.57
52 | CN(Cc1cnccn1)c1cc([C@H]2CCOC2)nc(N)n1 | -2 | 0.39
53 | O=C1CNC(=O)N1Cc1nc(-c2ccncc2)nn1C1CCCCC1 | -11 | 1.47
54 | COC(=O)CC(C)(C)CC(=O)N1CCC2C(CCN2C(=O)OC(C)(C)C)C1 (stereo not drawn) | 13 | -1.3
55 | CCOc1ccc(-n2c(C)c3c(C)nn4cc(-c5ccccc5)cc4c3c2C)cc1 | 6 | -0.72
56 | CC[C@H](C)c1ccc(NC(=O)COc2ccc(C(=O)c3ccc(F)cc3)cc2)cc1 | -1 | 0.15
57 | O=C(N1CCN2CCC[C@H]2C1)C(F)(F)C(F)(F)C(F)(F)C(F)(F)C(F)(F)C(F)(F)F | -16 | 1.42
58 | Cc1ccc2nc(NCC3CC3)n3c(-c4ccccc4F)nnc3c2c1 | -14 | 1.62
59 | CN(C)c1nc(CS(=O)(=O)c2ccccc2)cs1 | -5 | 0.94
60 | CCOc1ccc(CNC(=NC)NCCCOC)cc1 | 0 | 0.03
61 | O=C(c1ccccn1)N1CCC[C@H]1c1nc(C2CCOCC2)no1 | -17 | 2.14
62 | COCCS(=O)(=O)NCCN(C)c1ccccn1 | 4 | -0.56
63 | CCC[C@]1(CO)CCCN(Cc2ccc(OCC(=O)N3CCCC3)cc2)C1 | -16 | 2.05

Row | SMILES | % Inhibition [%] | Z score
64 | Cc1nn(-c2ccccc2Cl)c2c1[C@@H](c1ccc3c(c1)OCO3)CC(=O)N2 | -8 | 0.87
65 | Cc1cc2c(cc1-n1cnnc1)OCO2 | -3 | 0.47
66 | Cc1cnn(C2CN(CC(=O)NC(C3CC3)C3CC3)C2)c1 | 5 | -0.96
67 | Cc1nnc(CN(C(=O)c2cc(F)c(F)cc2Cl)C(C)(C)C)o1 | -13 | 1.58
68 | COc1ccc(C(=O)N2CCC3(CC2)C[C@@H](O)CCO3)cc1 | 32 | -4.6
69 | O=C(Cn1cccn1)Nc1ccccc1-c1ccccc1 | -2 | 0.29
70 | O=C(Cn1cccc1-c1nc(-c2cccc(Cl)c2)no1)N1CCOCC1 | -8 | 1.47
71 | O=C(NCCc1nccn1Cc1ccccc1)[C@@H]1CCCO1 | -14 | 2.03
72 | C[C@H]1CN(C(=O)c2cccc(-n3nccc3C(F)(F)F)c2)CCN1 | 3 | -0.31
73 | CCOc1ccc(-c2nn3c(-c4ccccc4C(=O)O)nc4ccccc4c3nc2=O)cc1 | -3 | 0.37
74 | O=C(Nc1ccccc1C(F)(F)F)C1CCN(S(=O)(=O)Cc2cccc(Cl)c2)CC1 | -2 | 0.42
75 | CCCCn1c(Nc2nc3ccccc3n2C)nc2ccccc21 | -13 | 2.04
76 | CCN=C(NCc1cc(CC)no1)NC[C@H]1COc2ccccc2O1 | -17 | 1.54
77 | Cc1cc(C(C)C)nc(N2CCN(S(=O)(=O)CC3CCCC3)CC2)n1 | -8 | 0.88
78 | C[C@H]1NC(=O)N(CCc2nc(C(F)(F)F)cs2)C1=O | 38 | -5.47
79 | O=C(NC[C@@H]1COc2ccccc2C1)c1n[nH]c2c1CCCC2 | -16 | 2.48
80 | Cc1ccc(C)n1NC(=O)COc1ccc(Br)cc1 | -37 | 4.34
81 | Cc1cc(C)c(CNCC(C)(C)CCCO)cc1C | 3 | -0.26
82 | O=C(c1cc2ccccc2[nH]1)N1CC[C@H](n2nccn2)C1 | 3 | -0.48
83 | COC[C@@H]1[C@H](NC(=O)c2cc(Cl)ccc2F)[C@H]2CCO[C@H]21 | 2 | -0.18
84 | COc1ccc2c(c1)CCN(c1cc(N3CCC(O)CC3)ncn1)CC2 | -6 | 1.14
